About 3,600 (1.6%) of roughly 230,000 compounds were called active. Inconclusive means that the source gave no clear call. Such entries were picked first, then a sample of the others. The call rests on the fitted dose curve; in most records, active means well fitted inhibition curve with a large enough effect (not every such curve was filed as active); inconclusive means small, poorly fitted or top-dose-only effect, or another doubt; inactive means no such curve, though single readings can be large or run the other way. Where the call is inconclusive, the potency comes from a doubtful curve fit.
These compounds were tested against Lysine-specific demethylase 4E (Homo sapiens) (UniProt B2RXH2) (assay: qHTS Assay for Inhibitors of Human Jumonji Domain Containing 2E (JMJD2E)). Details: JMJD2E catalytic domain, FDH-coupled NADH fluorescence (FDH is formaldehyde dehydrogenase); series mostly up to 57.1 µM.
Chain of UniProt B2RXH2 (B2RXH2 whole entry, looked up, the tested form may be a part): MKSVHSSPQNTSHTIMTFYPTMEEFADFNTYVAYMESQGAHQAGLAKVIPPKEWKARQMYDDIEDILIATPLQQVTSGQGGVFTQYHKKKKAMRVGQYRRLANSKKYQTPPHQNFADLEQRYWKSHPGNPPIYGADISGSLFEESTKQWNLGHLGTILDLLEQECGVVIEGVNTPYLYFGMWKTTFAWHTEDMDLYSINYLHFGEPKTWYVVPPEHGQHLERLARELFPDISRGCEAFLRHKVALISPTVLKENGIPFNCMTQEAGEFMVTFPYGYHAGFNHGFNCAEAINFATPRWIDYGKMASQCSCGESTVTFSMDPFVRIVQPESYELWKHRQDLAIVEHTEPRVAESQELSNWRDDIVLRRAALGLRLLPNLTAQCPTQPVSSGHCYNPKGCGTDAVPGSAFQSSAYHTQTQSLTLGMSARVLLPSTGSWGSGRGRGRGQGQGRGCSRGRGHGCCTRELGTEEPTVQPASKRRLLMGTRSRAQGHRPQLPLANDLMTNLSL
In the case of `COc1ccc(-c2nc3c(c4c2C[C@H](c2ccccc2)OC4)CN(S(=O)(=O)c2ccc(Cl)c4nonc24)CC3)c(C)c1`, the activity change, negative = inhibition is reported as inactive: -8.88% [at 11.4 µM]. In the case of `CCOc1ccccc1N(C(=O)c1snc(C(N)=O)c1N)C(C(=O)NCCC(C)C)c1ccco1` (stereo not drawn), the Potency is reported as inconclusive: 25.1 µM [inhibitor, partial curve]. In the case of `Cc1csc(NC(=O)c2ccc(N3CCCC3=O)cc2)n1`, the Potency is reported as inconclusive: 14.1 µM [inhibitor, partial curve, poor fit]. In the case of `Clc1ccc(-c2nnc(NCc3ccccc3)c3ccccc23)cc1`, the Potency is reported as “inactive”. With `COC(=O)c1cccc(NC(=O)c2ccc3c(c2)C(=O)N(CC2CCCO2)C3=O)c1` (stereo not drawn) the Potency was “inactive”. In the case of `COc1cc(C(CCN2CCCC2)c2c(OC)cc(OC)c3ccc(=O)oc23)cc(OC)c1OC` (stereo not drawn), the Potency is reported as inconclusive: 25.1 µM [inhibitor, partial curve]. For `CC(C)(C)OC(=O)[C@H](Cc1ccccc1)NC(=O)c1[nH]cnc1C(=O)Nc1cccc(Cl)c1`, the Potency was inconclusive: 31.6 µM [inhibitor, single point]. `COc1ccc2c(c1OC)C(=O)N1N=C(c3ccc(O)cc3)CC21` (stereo not drawn) was tested, and the Potency was “inactive”. For `O=C(CCC(=O)c1ccc(Oc2ccccc2)cc1)Nc1ccc(Cl)cc1Cl`, the Potency was “inactive”. With `O=C1CCCN1CCCN=c1c([N+](=O)[O-])nn(-c2ccc(Cl)cc2)n1O` the Potency was inconclusive: 28.2 µM [inhibitor, single point]. `Cc1cc(C)c(C)c(S(=O)(=O)NC(C(=O)O)C(C)C)c1C` (stereo not drawn) was tested, and the Potency was inconclusive: 39.8 µM [inhibitor, single point]. With `COc1ccc2c(c1OC)C(=O)N1c3ccccc3SC21` (stereo not drawn) the Potency was inconclusive: 28.2 µM [inhibitor, partial curve]. In the case of `CC(=O)COC(=O)C1CC(=O)N(c2ccc(C)c(C)c2)C1` (stereo not drawn), the Potency is reported as “inactive”. For `O=C(c1ccccc1)n1ccn(-c2ccccc2)c1=S`, the Potency was inconclusive: 39.8 µM [inhibitor, single point]. `COc1ccccc1C(=O)Nc1ccc2c(c1)OCO2` was tested, and the Potency was “inactive”. For `CC(C)COP(=O)(c1ccc(N(C)C)cc1)C(O)c1ccncc1` (stereo not drawn), the Potency was active: 20 µM. In the case of `CCSc1ccc2nnc(-c3ccc(F)cc3)n2n1`, the Potency is reported as inconclusive: 28.2 µM [inhibitor, single point]. For `Cc1ccc(C)c(N2CCN(C(=O)C3CCN(c4nc(C)cc(C)n4)CC3)CC2)c1`, the Potency was inconclusive: 31.6 µM [inhibitor, single point]. For `O=[N+]([O-])c1ccc(/C=C2\CCC(C3=CCCC3)=C2N2CCOCC2)cc1`, the Potency was inconclusive: 25.1 µM [inhibitor, single point]. `COc1ccc(CN(C(=O)c2ccco2)c2ccc(Br)cc2)cc1OC` was tested, and the Potency was inconclusive: 39.8 µM [inhibitor, single point]. For `O=C(/C=C/Sc1ccccc1)c1ccc(Cl)cc1`, the Potency was “inactive”. `N#C/C(=C(/O)c1ccc([N+](=O)[O-])cc1)c1nnc2n1CCCCC2` was tested, and the Potency was “inactive”. With `COc1cccc([C@@H]2Oc3ccc(Br)cc3C[C@H]2OC(=O)Nc2ccc(OC(F)F)cc2)c1` the Potency was “inactive”. For `CCOC(=O)NCc1ccc(S(=O)(=O)Nc2ccc(C)cc2)cc1`, the Potency was “inactive”. With `COC(=O)C(C)Oc1cc(OC(C)C(=O)OC)c2c(C)c(Cl)c(=O)oc2c1` (stereo not drawn) the Potency was inconclusive: 28.2 µM [inhibitor, partial curve]. `COc1cc(/C=N/N=C2/NC(=O)C(CC(=O)O)S2)ccc1OCc1ccc(Cl)cc1` (stereo not drawn) was tested, and the Potency was “inactive”. With `Cc1cc(C)c(N2C(=O)C3C4CC(=O)C(c5ccccc54)C3C2=O)c(C)c1` (stereo not drawn) the Potency was “inactive”. For `Cc1cc(Cl)ccc1OC(C)C(=O)Nc1ccc(S(=O)(=O)Nc2cnc3ccccc3n2)cc1` (stereo not drawn), the Potency was inconclusive: 31.6 µM [inhibitor, partial curve]. `CCCn1c(=O)c(C(=O)c2ccccc2)nc2ccccc21` was tested, and the Potency was “inactive”. With `COc1ccc2c(c1)[nH]c1c(=O)n(CCN3CCOCC3)cnc12` the Potency was inconclusive: 28.2 µM [inhibitor, single point]. With `COc1ccccc1-n1c(N)c(C(=O)NCC2CCCO2)c2nc3ccccc3nc21` (stereo not drawn) the Potency was inconclusive: 20 µM [inhibitor, partial curve]. For `O=C(NCCCNC1CCCCC1)c1ccc(/C=N/O)nc1`, the Potency was “inactive”. For `CCOc1ccc(N2CC(=O)SC2=S)cc1`, the Potency was “inactive”. For `CCC(CC)C(=O)N1N=C(c2ccc(NS(C)(=O)=O)cc2)CC1c1ccccc1` (stereo not drawn), the Potency was inconclusive: 31.6 µM [inhibitor, partial curve]. In the case of `COC(=O)c1ccccc1NC(=O)CSc1nnc(Cc2ccc(Cl)cc2)o1`, the Potency is reported as “inactive”. For `O=C(CCCO)NNc1c2ccccc2nc2ccccc12`, the Potency was inconclusive: 28.2 µM [inhibitor, single point]. `COc1cc(/C=C/C(=O)OCC(=O)Nc2sc3c(c2C#N)CCC(C)C3)ccc1OCC#N` (stereo not drawn) was tested, and the Potency was inconclusive: 28.2 µM [inhibitor, single point]. With `COc1ccccc1-c1c(C)c(C)nc(N)c1C#N` the Potency was inconclusive: 12.6 µM [inhibitor, partial curve]. With `O=S(=O)(Nc1nc2ccccc2nc1N1CCc2ccccc2C1)c1ccc(Cl)cc1` the Potency was inconclusive: 17.8 µM [inhibitor, single point]. `O=C(COC(=O)c1cc(Br)ccc1O)Nc1cc(S(=O)(=O)N2CCCC2)ccc1Cl` was tested, and the Potency was inconclusive: 35.5 µM [inhibitor, single point]. For `COC(=O)CSc1nc(C(C)C)nc2ccccc12`, the Potency was “inactive”. `O=C(Nc1ccccc1)C1=C[C@H](c2ccc3c(c2)OCO3)C[C@H](OCCCCO)O1` was tested, and the Potency was “inactive”. With `COc1ccccc1NC1=C(N2CCCCC2)C(=O)c2ccccc2C1=O` the Potency was “inactive”. For `Cc1ccc2nc(NNC(=O)c3ccc(S(=O)(=O)N4CCc5ccccc5C4)cc3)sc2c1`, the Potency was “inactive”. `CCOC(=O)C1CCCN(c2c(N3CCc4ccccc4C3)c(=O)c2=O)C1` (stereo not drawn) was tested, and the Potency was “inactive”. `Cc1c(N=c2scc(-c3ccccc3)n2C)c(=O)n(-c2ccccc2)n1C` was tested, and the Potency was “inactive”. In the case of `COc1ccc(C)cc1N(C(=O)c1cccc(F)c1)c1nc2ccccc2s1`, the Potency is reported as inconclusive: 39.8 µM [inhibitor, single point]. `NC(=O)c1ccc(NC(=O)c2cccc3c2OCCCO3)cc1` was tested, and the Potency was “inactive”.
Further: nearly all actives have a fitted effect of over 50% in size.
Potency means the concentration at half of the fitted maximal effect; tags describe the fitted curve by direction and shape.
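Wherever activity change, negative = inhibition is given: 0% = wells with enzyme and -100% = buffer wells without enzyme.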
